Whole data set: some 33,000 sequences, median “E-score (-0.5 to 0.5)” near -0.013, cut for the highest 2% near 0.3. The list shows a part of the results.
molecular target: T1, Msn1 (UniProt P22148); assay: PBM E-score (8-mer binding enrichment) (E-score (-0.5 to 0.5)); higher = stronger / more preferred TF binding; most listed sequences are background and not binding sites; conditions: protein concentration: 200 nM; construct: GST-full length
T1 sequence: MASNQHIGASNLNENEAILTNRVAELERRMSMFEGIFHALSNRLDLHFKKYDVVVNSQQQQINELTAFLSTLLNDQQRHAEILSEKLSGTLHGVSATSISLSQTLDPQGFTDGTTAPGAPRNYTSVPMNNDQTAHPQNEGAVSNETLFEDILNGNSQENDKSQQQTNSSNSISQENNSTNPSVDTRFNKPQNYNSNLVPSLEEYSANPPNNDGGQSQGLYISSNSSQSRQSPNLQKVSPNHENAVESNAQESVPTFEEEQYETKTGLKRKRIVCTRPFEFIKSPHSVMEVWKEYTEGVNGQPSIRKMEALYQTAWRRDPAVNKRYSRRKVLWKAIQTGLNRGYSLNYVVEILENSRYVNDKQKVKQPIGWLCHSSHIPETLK
Description: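 Universal 'all 10-mer' protein binding microarrays (Agilent AMADID 015681) probed with GST-tagged S. cerevisiae TFs (full-length or DBD) made by in vitro transcription/translation (PURExpress), about 100-200 nM. Bound TF was detected with fluorescent anti-GST. Each ungapped 8-mer (which stands for itself and its reverse complement) is scored by the PBM enrichment score (E-score), a modified Wilcoxon-Mann-Whitney statistic from -0.5 to +0.5, computed with the Universal PBM Analysis Suite. Scale: above 0.35 generally sequence-specific binding.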

Question: How did the “PBM E-score” value turn out when CATGACCA was run?
Answer: -0.0643

Question: For ATAATCAT, which “PBM E-score” value is on record?
Answer: 0.262

Question: Which “PBM E-score” value does the source give for ACCAGATC here?
Answer: -0.0751

Question: With GGCTAGCA as the sequence, how does the “PBM E-score” value read?
Answer: -0.0616

Question: How did the “PBM E-score” value turn out when CCCGTGCG was run?
Answer: -0.169

Question: Which “PBM E-score” value does the source give for AGGGTAAA here?
Answer: 0.0917

Question: Which “PBM E-score” value does the source give for CCAATCAA here?
Answer: 0.0531

Question: Which “PBM E-score” value does the source give for AACATATG here?
Answer: 0.0946

Question: With AACTTAAT as the sequence, how does the “PBM E-score” value read?
Answer: 0.154

Question: ACATAGTA was tested. Which “PBM E-score” value did it give?
Answer: 0.0987

Question: For CCTTGAGA, which “PBM E-score” value is on record?
Answer: 0.0039

Question: Which “PBM E-score” value does the source give for CTATGCGA here?
Answer: -0.00993

Question: AAGGAAAA was tested. Which “PBM E-score” value did it give?
Answer: 0.0464

Question: With CCAGTATC as the sequence, how does the “PBM E-score” value read?
Answer: -0.0896

Question: For AGGGCAAT, which “PBM E-score” value is on record?
Answer: -0.0482

Question: AAGGCGGC was tested. Which “PBM E-score” value did it give?
Answer: -0.115

Question: How did the “PBM E-score” value turn out when ACAACGCG was run?
Answer: 0.158

Question: Which “PBM E-score” value does the source give for CGATCCTA here?
Answer: -0.0181

Question: For AGGGAACC, which “PBM E-score” value is on record?
Answer: -0.195

Question: Which “PBM E-score” value does the source give for GAGCTCGC here?
Answer: -0.0509

Question: With GAGTGTAA as the sequence, how does the “PBM E-score” value read?
Answer: -0.154

Question: How did the “PBM E-score” value turn out when GAGTTACC was run?
Answer: -0.145

Question: With ACGGTTCA as the sequence, how does the “PBM E-score” value read?
Answer: -0.177

Question: With AGAGATCT as the sequence, how does the “PBM E-score” value read?
Answer: -0.157

Question: Which “PBM E-score” value does the source give for AGGCACAA here?
Answer: -0.0855

Question: For GAACCGTC, which “PBM E-score” value is on record?
Answer: 0.0464

Question: Which “PBM E-score” value does the source give for ACGGGCTC here?
Answer: -0.203

Question: CAGAGCTC was tested. Which “PBM E-score” value did it give?
Answer: -0.169

Question: For GCGCGACA, which “PBM E-score” value is on record?
Answer: 0.217

Question: For GCACCAAC, which “PBM E-score” value is on record?
Answer: -0.139

Question: Which “PBM E-score” value does the source give for CCCCACTA here?
Answer: -0.301

Question: CAGCATAC was tested. Which “PBM E-score” value did it give?
Answer: -0.143

Question: GCCACTTA was tested. Which “PBM E-score” value did it give?
Answer: -0.126

Question: With ATCTATTG as the sequence, how does the “PBM E-score” value read?
Answer: -0.0619

Question: Which “PBM E-score” value does the source give for TACGACTA here?
Answer: 0.176

Question: Which “PBM E-score” value does the source give for GAGGTGCC here?
Answer: -0.0799

Question: GGGAATGA was tested. Which “PBM E-score” value did it give?
Answer: 0.103

Question: Which “PBM E-score” value does the source give for AGACGCGG here?
Answer: 0.0366

Question: How did the “PBM E-score” value turn out when TAGATGAA was run?
Answer: 0.00555

Question: Which “PBM E-score” value does the source give for CCCGCAAC here?
Answer: 0.0262

Question: How did the “PBM E-score” value turn out when AAAAACTG was run?
Answer: -0.142

Question: For GAGGCTAA, which “PBM E-score” value is on record?
Answer: 0.0456

Question: With CGGCAGGA as the sequence, how does the “PBM E-score” value read?
Answer: -0.192

Question: For CGGTGGCC, which “PBM E-score” value is on record?
Answer: -0.171

Question: Which “PBM E-score” value does the source give for ACGCTAGT here?
Answer: 0.00346

Question: Which “PBM E-score” value does the source give for CAACCTCA here?
Answer: -0.136

Question: CTACTGCC was tested. Which “PBM E-score” value did it give?
Answer: -0.127

Question: With GCCCTTGA as the sequence, how does the “PBM E-score” value read?
Answer: -0.0553

Question: CGGAAGAA was tested. Which “PBM E-score” value did it give?
Answer: 0.0955

Question: Which “PBM E-score” value does the source give for TACGAACA here?
Answer: 0.235

Question: AAGCTGCA was tested. Which “PBM E-score” value did it give?
Answer: -0.00873

Question: Which “PBM E-score” value does the source give for AAGCCTCT here?
Answer: -0.17

Question: AAGGTGAG was tested. Which “PBM E-score” value did it give?
Answer: -0.121

Question: Which “PBM E-score” value does the source give for CAAATTGA here?
Answer: -0.0102

Question: Which “PBM E-score” value does the source give for ACGGGTTG here?
Answer: -0.126

Question: With GGTAAGCA as the sequence, how does the “PBM E-score” value read?
Answer: -0.147

Question: Which “PBM E-score” value does the source give for ATGGGCGC here?
Answer: -0.167

Question: Which “PBM E-score” value does the source give for TCTGTTAA here?
Answer: 0.0983

Question: With AGCACGCA as the sequence, how does the “PBM E-score” value read?
Answer: -0.135

Question: AAACCCCT was tested. Which “PBM E-score” value did it give?
Answer: -0.311

Question: Which “PBM E-score” value does the source give for ACATGAGA here?
Answer: 0.13

Question: For ATTAGAAC, which “PBM E-score” value is on record?
Answer: 0.201

Question: Which “PBM E-score” value does the source give for ACTACGCT here?
Answer: -0.0331

Question: Which “PBM E-score” value does the source give for TCAGGGCA here?
Answer: -0.175

Question: Which “PBM E-score” value does the source give for TGCATCCA here?
Answer: -0.0633

Question: For CCGAAGTC, which “PBM E-score” value is on record?
Answer: 0.107

Question: CTACGCCA was tested. Which “PBM E-score” value did it give?
Answer: -0.291

Question: With GCACACCC as the sequence, how does the “PBM E-score” value read?
Answer: -0.217

Question: GATTGTAA was tested. Which “PBM E-score” value did it give?
Answer: 0.0176

Question: Which “PBM E-score” value does the source give for CAACTTAG here?
Answer: 0.157

Question: Which “PBM E-score” value does the source give for AAACGGAG here?
Answer: 0.0722

Question: For CTGTTATA, which “PBM E-score” value is on record?
Answer: 0.0756

Question: For AAGCTATT, which “PBM E-score” value is on record?
Answer: -0.141

Question: Which “PBM E-score” value does the source give for ACGACGAG here?
Answer: -0.0108

Question: With CAACGGGC as the sequence, how does the “PBM E-score” value read?
Answer: 0.0186

Question: Which “PBM E-score” value does the source give for AAATTTAG here?
Answer: 0.187

Question: For GCCAACGA, which “PBM E-score” value is on record?
Answer: -0.0272

Question: For AACAAACA, which “PBM E-score” value is on record?
Answer: 0.133

Question: Which “PBM E-score” value does the source give for CCGGAGCG here?
Answer: -0.00231

Question: With CCTGCGTC as the sequence, how does the “PBM E-score” value read?
Answer: -0.103

Question: For GATGTTCA, which “PBM E-score” value is on record?
Answer: -0.0625

Question: Which “PBM E-score” value does the source give for GACGGTCC here?
Answer: -0.152

Question: How did the “PBM E-score” value turn out when ACAAGTTG was run?
Answer: 0.103

Question: Which “PBM E-score” value does the source give for ATAATCCA here?
Answer: 0.00465

Question: How did the “PBM E-score” value turn out when ATAGGGAG was run?
Answer: -0.371

Question: How did the “PBM E-score” value turn out when GGGTACGA was run?
Answer: -0.202

Source: the supplement of paper PMC3334620
